Source: the RNAGym collection of RNA variant scans (doi:10.7554/elife.90254)
The source gives no read counts; variants with many changes may rest on few reads.

B1: LINE1-mini (parent)
chain: GGCAGAGCUCAACACAGCGUGGCAAAGUGGCUGUGGCUAGACUGCC

Variants of: B1
Experiment: self-cleavage, relative activity (ratio to wild type); higher = more cleavage; in vitro, sequencing; the parent is a self-cleaving ribozyme
C15A G19A A39G gave a self-cleavage of 0.05.
For C3G U34G G36U, the self-cleavage was 0.1.
With A16C U34C U38A the self-cleavage was 0.02.
A6U C10A A24C G29U gave a self-cleavage of 0.02.
C10U C13G C18U G36C showed a self-cleavage of 0.09.
In the case of G7C A12C U20A, the self-cleavage is reported as 0.01.
C10A G17U U34C G44U showed a self-cleavage of 0.01.
With C23U A25G G40A the self-cleavage was 0.16.
C10U G19U U34G U38G showed a self-cleavage of 0.
G5U A14G G27U C46A showed a self-cleavage of 0.05.
Work on C8A C10U A16U C18U yielded a self-cleavage of 0.04.
U9A C23U G27U G30U G36U C42A U43C gave a self-cleavage of 0.03.
Work on U9G C23G A24G G30A U34G yielded a self-cleavage of 0.17.
Work on C10A A14G A25U C42G yielded a self-cleavage of 0.01.
Variant C3A C8A C15A has a self-cleavage of 0.6.
In the case of G5U G22C C23A, the self-cleavage is reported as 1.39.
G1U C13U C15G G17C G19U C23U G35U showed a self-cleavage of 0.01.
Variant G7C C37A G40A C46U has a self-cleavage of 0.18.
With G5U A11C C31A G35C A39U the self-cleavage was 0.
G1C C15A A16U gave a self-cleavage of 0.01.
In the case of G2U C3G U9A G22C C31U U32C, the self-cleavage is reported as 0.04.
With A14C G35U C45G the self-cleavage was 0.05.
In the case of U9G C13U C37U U43A, the self-cleavage is reported as 0.01.
With A4U G30C A41C the self-cleavage was 0.04.
With G22U C23A C46U the self-cleavage was 1.09.
For U28A G35A A39G, the self-cleavage was 0.05.
G17C C23A C31A C45A gave a self-cleavage of 0.13.
Variant G27U C37A U43A has a self-cleavage of 0.01.
In the case of C3G C8U A26G U28A G35A, the self-cleavage is reported as 0.05.
Variant C10A U20G A24U C37A has a self-cleavage of 0.02.
G7C G44U C46A showed a self-cleavage of 0.09.
For C3G C10A A25U G27A G40U, the self-cleavage was 0.02.
Variant A11C A12G A25U has a self-cleavage of 0.
Variant A4U C10U G40C C45U has a self-cleavage of 0.07.
G7U C23U G35C U38C showed a self-cleavage of 0.04.
Variant G17C G21C G22A U32C G33A has a self-cleavage of 0.09.
Work on C3U G7U C10G G35C yielded a self-cleavage of 0.01.
For A16G U20G G21U, the self-cleavage was 0.04.
Variant G5A U28C U34G A39C has a self-cleavage of 0.01.
G5U G29A G33U gave a self-cleavage of 0.13.
In the case of A4G C10U U28C G30A U43C, the self-cleavage is reported as 0.16.
G2U G5C C15G C18G gave a self-cleavage of 0.03.
A14U A16C A26C showed a self-cleavage of 0.01.
A4U G22C A24U gave a self-cleavage of 0.09.
Work on G22A G30U G44A yielded a self-cleavage of 0.77.
A11G A12U C23A G29A showed a self-cleavage of 0.04.
In the case of C13U U28A C31G C37U G40C, the self-cleavage is reported as 0.15.
G1C U38G G44U gave a self-cleavage of 0.02.
Variant G1U A4U C45A has a self-cleavage of 0.05.
C23A U38C C46A gave a self-cleavage of 0.15.
C23G G29C G35C gave a self-cleavage of 0.01.
G2C A14U C37U gave a self-cleavage of 0.03.
With C3A C15A G19U A41G the self-cleavage was 0.22.
C3A C13G G19C C45U showed a self-cleavage of 0.43.
With A6C A14C G17U C37U the self-cleavage was 0.05.
With G1A A6U C8G G29A the self-cleavage was 0.47.
In the case of A12U C13G C23U A24G, the self-cleavage is reported as 0.16.
In the case of A11U A16C A26C G40C, the self-cleavage is reported as 0.01.
In the case of C13G U20A A26C A39C, the self-cleavage is reported as 0.06.
For A6U C13G A24U G33A, the self-cleavage was 0.09.
A6C G17A G36C gave a self-cleavage of 0.06.
Variant C13A G17A C46A has a self-cleavage of 0.04.
With G5U C31A U38C A39C the self-cleavage was 0.02.
Variant A4G U28G C37U U38A G44A has a self-cleavage of 0.03.
Variant A12G G17A G21C G36A C45G has a self-cleavage of 0.03.
In the case of C10G C13G G36C C37U, the self-cleavage is reported as 0.
Variant A14U G17U G30U C42A has a self-cleavage of 0.24.
With A6C A14C G22U the self-cleavage was 0.54.
Work on G7U A12G C23A yielded a self-cleavage of 0.01.
For G7U A12U G19C U20G C42A, the self-cleavage was 0.02.
For C15G A39C C46A, the self-cleavage was 0.01.
Work on C42G G44C C45A yielded a self-cleavage of 0.05.
In the case of A6U U20G G27A, the self-cleavage is reported as 0.26.
With C10A A25C G35U A41U U43A the self-cleavage was 0.02.
Variant C13G G17C C31U U34C C42U has a self-cleavage of 0.02.
A6C A12U C15A showed a self-cleavage of 0.02.
With G5U G7A C13U C37U the self-cleavage was 0.38.
Work on G21C G40U C42G yielded a self-cleavage of 0.05.
Variant A12U U32G G36U has a self-cleavage of 0.01.
For G1C G5C C13U G33C, the self-cleavage was 0.04.
Work on C3A A4C A12C G36U yielded a self-cleavage of 0.09.
With C18U U38G G40U the self-cleavage was 0.2.
With C3U A4U G5U the self-cleavage was 0.22.
U9A C18U G22U U34G showed a self-cleavage of 0.01.
G33C A39U C46U showed a self-cleavage of 0.04.
A11C A16C A25G showed a self-cleavage of 0.01.
G1A C3U A6U G29U showed a self-cleavage of 1.1.
Work on C13U G17C G19C A26G U34A U43C G44A yielded a self-cleavage of 0.01.
Work on C10A C13A C18U G22A U43C yielded a self-cleavage of 0.
C3U G7U C8A U9A C23U A24U C46U gave a self-cleavage of 0.2.
With A6G U9G C15A C18G G27C A39U G40A the self-cleavage was 0.04.
For G7A G19A G40A, the self-cleavage was 0.54.
For A4U G22U U38C, the self-cleavage was 0.22.
Work on C3G C10A G22U G40U yielded a self-cleavage of 0.05.
In the case of C8U C15G G29U U38G, the self-cleavage is reported as 0.03.
With G1A C10G C18U the self-cleavage was 0.29.
With C10A G19A A24U the self-cleavage was 0.33.
Variant C3G G30U U43C has a self-cleavage of 0.01.
Work on A6G G17C C45A yielded a self-cleavage of 0.1.
With A4U C15U U43C the self-cleavage was 0.03.
A11U G19C G21U A25C U32A C45A gave a self-cleavage of 0.01.
G33A A39C G44U gave a self-cleavage of 0.01.
G7A C10U G21A A26C showed a self-cleavage of 0.02.
Variant U9C C18U C23A U28G G36C has a self-cleavage of 0.02.
A6C C15A G19U U32A C42U gave a self-cleavage of 0.06.
Variant A16C G27A G35C has a self-cleavage of 0.03.
In the case of U9G G21A U38A C46A, the self-cleavage is reported as 0.06.
With U32C G35A G40C the self-cleavage was 0.02.
With G2C G5A A25G A39U C46G the self-cleavage was 0.21.
For A6G C15U G22C C37G C45A, the self-cleavage was 0.04.
In the case of C3A C8U A16U G22C G40C, the self-cleavage is reported as 0.15.
Work on U9C C13A C15U G29C G33A U34G yielded a self-cleavage of 0.
Work on G1A G27U U34C yielded a self-cleavage of 0.03.
Work on G33A G35C G36C yielded a self-cleavage of 0.1.
Variant C3A C10A A24U has a self-cleavage of 0.07.
In the case of A11U G17C C23A U38C, the self-cleavage is reported as 0.02.
C13U A16G G33U G36A C37A C45A gave a self-cleavage of 0.02.
With A4G G19C G33C C37A the self-cleavage was 0.02.
A24U U32A C46G showed a self-cleavage of 0.02.
In the case of U20A G21A C46A, the self-cleavage is reported as 0.32.
In the case of C15U G21U G33U, the self-cleavage is reported as 0.08.
C3U U43A G44U gave a self-cleavage of 0.16.
Variant A26C G30C A39U U43C C46A has a self-cleavage of 0.07.
With G5U G7C G22U A24C G30C C46A the self-cleavage was 0.04.
With G30C C31U U34G the self-cleavage was 0.03.
Work on G2C A4C C10G A24U U28C G35C C46A yielded a self-cleavage of 0.
A6C A12U C13U C23A G35U showed a self-cleavage of 0.13.
In the case of A25C U38A C46A, the self-cleavage is reported as 0.04.
For C8G A12C C23A, the self-cleavage was 0.01.
G7U A14C G22U C23A A24G G27A gave a self-cleavage of 0.04.
C10A A26G G27C showed a self-cleavage of 0.13.
Variant C3U A6U C10A G35A A41G has a self-cleavage of 0.06.
Variant G7U C8U C23A G27A has a self-cleavage of 0.4.
Work on G5C G27C A39C yielded a self-cleavage of 0.05.
A11C A12C C18G C42U C46G showed a self-cleavage of 0.01.
In the case of C10G G22U C23A G29A, the self-cleavage is reported as 0.03.
U9A C10U C18A U32G G36A U38A gave a self-cleavage of 0.08.
With U9A U34C C37A the self-cleavage was 0.09.
G5A G33U A41U G44U gave a self-cleavage of 0.13.
For C3U A4G G35A G44U, the self-cleavage was 0.04.
With A11C U28C U32A G33C U34C G40U the self-cleavage was 0.01.
In the case of G7A C8U G33U, the self-cleavage is reported as 0.28.
With C3G C10U G17U G27A the self-cleavage was 0.02.
G17C C23A G27U gave a self-cleavage of 2.43.
C3G A6G C10G C15U G27A C37A showed a self-cleavage of 0.01.
With A6C U32C A39U the self-cleavage was 0.08.
A4C A24U G29C C42U gave a self-cleavage of 0.04.
For C10A C15A C46A, the self-cleavage was 0.07.
A6U A11U G22U showed a self-cleavage of 0.34.
C10A A14U G29A gave a self-cleavage of 0.02.
In the case of G2A C3G U32A, the self-cleavage is reported as 0.41.
G1U A11G G29A C42G gave a self-cleavage of 0.
For G1C C10A A14U A16G, the self-cleavage was 0.01.
For G7A A39U C46U, the self-cleavage was 0.01.
U9C A14G G22A G30C U34A G36U A39U gave a self-cleavage of 0.
With A16U G27U G36C the self-cleavage was 0.05.
A6C C10U U20A G29U G30C U34A showed a self-cleavage of 0.03.
In the case of G30A G40A C42A, the self-cleavage is reported as 0.12.
Work on G2C C18U G22U G35U C37G yielded a self-cleavage of 0.05.
A14C U20C C23G gave a self-cleavage of 0.03.
Work on G5U C8G G21U G35A yielded a self-cleavage of 0.18.
In the case of C3U U28C G33C C37A, the self-cleavage is reported as 0.03.
G30U G44U C46G showed a self-cleavage of 0.03.
In the case of C3A C23G A25G A26G C37A, the self-cleavage is reported as 0.2.
C10U A26C C45G showed a self-cleavage of 0.11.
Work on G2U C15A C23G yielded a self-cleavage of 0.02.
Work on C3G G19C A26U A39G A41C yielded a self-cleavage of 0.
